Drawing on the RNAGym collection of RNA variant scans (doi:10.1093/nar/gkz1192), this text covers self-cleavage for 83 variants.

The source gives no read counts; variants with many changes may rest on few reads.

B1: CPEB3 Ribozyme (parent)
chain: UAACAGGGGGCCACAGCAGAAGCGUUCACGUCGCAGCCCCUGUCAGAUUCUGGUGAAUCUGCGAAUUCUGCUGUAUAUCUC

The variants in the data set derive from B1. Kind of data set: self-cleavage, relative activity (ratio to wild type); higher = more cleavage; in vitro, sequencing. Put shortly: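 Relative activity was defined as the cleaved/total read fraction for a variant divided by the same fraction for the unmutated ribozyme. CPEB3 self-cleaving ribozyme libraries were made by rounds of error-prone PCR, barcoded, and transcribed in vitro with T7 RNA polymerase for 5 hours at 37°C, and cleavage ran through transcription plus a 15 min DNase I step before EDTA. Illumina sequencing of template-switched reverse transcripts gave the reads, and DNA sequencing mapped the barcodes. Averages come from three batches, using variants with at least 5 reads.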
For the variant G8U A13G A18U U31A U72C U76C, the self-cleavage turned out to be 0.04.
In the case of G8A A13U A20U G46A U49C, the self-cleavage turned out to be 0.06.
To G8A A28G A35G G46U U58C belongs 0.06; to G8A G19U A20U G36A U41C A64G U76C, 0.03.
Take G8A A20G A35G A45G G63U A64G U76C: the self-cleavage is 0.09.
The figure for G8A C14A A15G A35U A57G is 0.05.
As to G7U U54A A57U G73C, the self-cleavage was determined as 0.48.
The figure for G9A G19U U31C A57C U80C is 0.05.
Take G8C A13U U80A: the self-cleavage stood at 0.26.
The figure for G8U A15U A20U U25A is 0.06; for G8A A28U A35U C38U U67C A77U it is 0.12; for G8C A28G G30A U31A U69A it is 0.06.
The figure for G8A U26C A28U A56U C68U U74C U80G is 0.03.
The figure for G9A U25C A57G U66C A77G is 0.12; for G9A A13C U41A A56U it is 0.29; for G8A A28G C37A C38G it is 0.23.
Regarding G8U U31C A35G, the self-cleavage was 0.17.
With G8U A15G U41C U43C G52C A64G, the self-cleavage was 0.06.
On to G8A A21G U51C U60C, for which the self-cleavage was determined as 0.14.
The figure for G8A U72C U80A is 0.43; for G8A U48C U66A U76C U80A it is 0.04.
To G9A A15U U54A A64G belongs 0.06.
The figure for G8U U51A A64G is 0.12; for G8A G9C U26A C32U U51G A56U U67C it is 0.05.
For the variant G8A U48C A75U, the self-cleavage turned out to be 0.08.
In the case of G8A C12A A13G U43A A65G U72A A75G, the self-cleavage was found to be 0.1.
As to G9A A21G C44U U72C U74C, the self-cleavage amounted to 0.05.
For the variant G9A G10C A47U U72C, the self-cleavage came out at 0.05.
The figure for G8A C11A A20G A56G U66C A77U is 0.1.
As to G9A C27A U43A G73A, the self-cleavage was determined as 0.06.
On to G8A G10U A15G U66C U72C, for which the self-cleavage stood at 0.04.
Take G8A A18G G42A U43C: the self-cleavage came out at 0.07.
Take G8A G30A A64U U69A: the self-cleavage is 0.05.
To G8C A57G U78A belongs 0.3.
Consider G7U U51C U72C U78C, for which the self-cleavage came out at 0.27.
In the case of G9A G19U G36C, the self-cleavage was 0.14.
G8C G30A U78C: the self-cleavage stood at 0.33.
As for G8U A15G A21C A35G G52C U74C U80C, the self-cleavage amounted to 0.05.
The figure for G8U U25C A45G A47G U78C U80A is 0.04.
As to G9A G19C A20U A35U U69C A77G U80A, the self-cleavage amounted to 0.03.
To G7U U49C U54C belongs 0.13.
Take G8C C11U C62U: the self-cleavage amounted to 0.08.
Consider G9A A18U U26C U41C U43C U54C U78C, for which the self-cleavage stood at 0.06.
On to G8A A20G A45U A65G, for which the self-cleavage was 0.05.
The figure for G8A U72A A77U is 0.05; for G8A A20G U25C U74C it is 0.46.
To G9A A15U C34A A35G belongs 0.17.
The figure for G8A U26C A45C U48C U66C is 0.06; for G8A A28G U80C it is 0.21; for G9A A35U U43A A47G U49C U60C A64U it is 0.04.
G8A C23U U43A C44A A56U U60A: the self-cleavage was found to be 0.06.
The figure for G8A C12A C38U C50G U66C U67C U80C is 0.04; for G8A A45G U66C it is 0.21.
The figure for G9A A18G A20G C40U U78C is 0.07; for G8U U31C U48C U54C U69C it is 0.05; for G8A A35G U43C C59A U69C it is 0.06.
Take G8U A13G C40U U49A U51C U72C U80C: the self-cleavage came out at 0.15.
Turning to G9A A35G A47C U48C A64G C81A, the self-cleavage is 0.4.
The figure for G8A A45G U69C is 0.2; for G8A C39U U41C U48C U49C it is 0.13; for G8U A18U G24A U26C U78C it is 0.06.
In the case of G9A A20C U66C, the self-cleavage stood at 0.12.
The figure for G8A G19U U26C A35G C37G is 0.22; for G8C A18G A20G U43C A64G U69G U72C it is 0.18.
To G8A C32A U41C belongs 0.21; to G9A U26C U51C G52C A65U, 0.05; to G9A A21G A35G U43A U60C C62U U78G, 0.12.
To G8C A57G U60A U72C U78C belongs 0.1.
For G8U C17U U49C, the self-cleavage is 0.32.
To G9A C32U U80C belongs 0.04.
The figure for G8A C40G C50A is 0.06; for G8A U25C A57G G70A it is 0.04; for G8U G30C U54C it is 0.09.
To G8U C11U U31C U41C U49A belongs 0.18; to G8A G33U A45C A56G U72C, 0.09.
For the variant G9A U25C G42A U48A U60A U69A, the self-cleavage came to 0.04.
To G9A A18U C29U U31A C37G C40U belongs 0.04.
As to G9A U31C U41A U69C U78C, the self-cleavage amounted to 0.04.
The figure for G8A U31C C39U is 0.7; for G9A C17G U41A U80C it is 0.15.
On to G8A U54C A56U C59A U69C U72C U80C, for which the self-cleavage was found to be 0.06.
As for G8A A13C U58A, the self-cleavage turned out to be 0.07.
The figure for G9A C11G A57G is 0.09.
